Assay results reported in the RNAGym collection of RNA variant scans (doi:10.1093/nar/gkz1192).
The source gives no read counts; variants with many changes may rest on few reads.

B1: CPEB3 Ribozyme (parent)
chain: UAACAGGGGGCCACAGCAGAAGCGUUCACGUCGCAGCCCCUGUCAGAUUCUGGUGAAUCUGCGAAUUCUGCUGUAUAUCUC

Variants of: B1
Experiment: self-cleavage, relative activity (ratio to wild type); higher = more cleavage; in vitro, sequencing
Method in brief: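 Relative activity was defined as the cleaved/total read fraction for a variant divided by the same fraction for the unmutated ribozyme. CPEB3 self-cleaving ribozyme libraries were made by rounds of error-prone PCR, barcoded, and transcribed in vitro with T7 RNA polymerase for 5 hours at 37°C, and cleavage ran through transcription plus a 15 min DNase I step before EDTA. Illumina sequencing of template-switched reverse transcripts gave the reads, and DNA sequencing mapped the barcodes. Averages come from three batches, using variants with at least 5 reads.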

Variant	self-cleavage
A13U A18U U43C C68A	0.07
A13G U51C A57G U60A A64G U72C	0
A13U A15G A35G A45G A47G	0.61
A13U A20G U51A U54G A56G	0.35
A13U A18G U43C A57G	0.29
A13G U26A U43C C44U U60A A65G U69A	0.07
A13G U26C A28C U60A U66A U80C	0.11
A13G U41C U80A	1.08
A13U A15G U41A	0.26
A13G U69C G73C	0.32
A13G U31C A64G	0.31
A13G U41A U48G A57G U69C	0.04
A13G U25C U54A A65U	0.08
A13G U26C A35U U54A U66A	0.06
A13G U31C U60C G63A U76C U80C	0.12
A13G U48C U60A U74C	0.19
A13U A15U G24U U31A A45G	0.15
A13G U41A U72C U78C U80A	0.07
A13G U51A U69C	0.29
A13G U26C U43C A64G U69A	0.05
A13U A18U U26A U60A A65G U74A	0.1
A13G U26A U51A U58C U72C	0.15
A13G U48C U72G	0.57
A13U A15C U58A U60C A77U	0.11

Variant	self-cleavage
A13U A18U A28U U41C A45G	0.15
A13U A15U A20G U72C U76A	0.66
A13G U49A U67A U80C	0.36
A13U A18U U60C G63A U66A U76C	0.19
A13G U31A U60G A75G	0.15
A13U A20G U43C	0.36
A13G U26A A56G U58A A75G U80C	0.1
A13G U48C A57G U66G U72C	0.14
A13G U58A U72A U74C	0.11
A13G U43A A56G U80C	0.89
A13U A18U A45G A56U	0.09
A13G U41A U60A	0.21
A13G U31A U41C U48A A65G	0.28
A13U A20G A56G A64G	0.62
A13G G33A A35G G73C U78C	0.33
A13G U26C A65G U76C	0.09
A13U A18G A20U A64G	0.17
A13G U31C C32G G63A	0.14
A13G U31G G33U A35G U43C U69C	0.3
A13G U51A U72C	0.38
A13U A18U G36U A75U	0.06
A13G U25C U51C U80C	0.26
A13G U49A A56G U69C	0.08
A13G U25C A75U	0.4

Variant	self-cleavage
A13G U25G A65G U78C	0.08
A13U A18G U51C U58C U67C U69A	0.31
A13G U58C U60C A77C	0.12
A13U A18U G36C U51A	0.07
A13G U26C U49C A56C	0.05
A13U A20G A56U U67C	0.26
A13G G33C A56U U69A U78C	0.06
A13U A20G U54C U78A	0.39
A13G U54A U72C	0.96
A13G G33A U72C	0.33
A13U A18U A21C U43C	0.19
A13G U41C U48C	0.4
A13G U26C A47G A64G	0.14
A13G U51A A64G	0.94
A13G U26C U78C	0.22
A13G U25C A45G	0.31
A13U A18C U25C U26C C40U U54A	0.29
A13U A18G A35G U54C U67C C79A	0.24
A13G U31A A47G C62G A65G	0.07
A13G U25G U49C	0.43
A13U A18U U41A U43C C50U U76C U78C	0.05
A13G U31C U78A	0.61
A13G G70A U76C C81G	0.66
A13U A15G A18U	0.23

Variant	self-cleavage
A13G U31C U48C	0.27
A13G U48C U69C U72C	0.13
A13G U26C A47G A75G	0.2
A13G G30U A47U	0.14
A13U A18C U51C A64G U69C U74C	0.34
A13U A18U A56C A75U	0.17
A13U A15U U31A G63A	0.09
A13U A15G A56G U60C U69C	0.16
A13G U31A A35G A75G U78C	0.92
A13U A15U A18U U25C	0.26
A13G U69A U72C	0.23
A13U A15G G24A G30C U41A A45G	0.09
A13G G36A U48C U78C	0.1
A13G U26A U54C G61C A64G U80C	0.12
A13G U26C A28G U54A U78G	0.05
A13U A20C U43C	0.27
A13G U25A C39G U74G	0.31
A13G U25C G36A U41A	0.21
A13G U54C A64G	0.66
A13G U25A U31G	0.31
A13G U26A U58C	0.24
A13G U41C A77G	0.89
A13G U25C A35U A45G	0.26
A13G U60A C71G	0.09

Variant	self-cleavage
A13U A18G U26A G52C A77C	0.52
A13G U41A U54C A57G	0.32
A13G U25C U60C	0.36
A13G G30U U31C U72A	0.09
A13U A20G U43C A57G U72A	0.1
A13U A18C A21U	0.1
A13G U31A U54G U66C U78A	0.37
A13G U25C A56G U69A	0.14
A13G U25C U66A	0.18
A13U A20G A45G	0.6
A13G G24A U54A A64G	0.09
A13G U31C G42A U66C	0.16
A13U A20G A28U A56G U69C	0.4
A13G U49A U66C	0.09
A13U A18U A75U C81U	0.82
A13U A18G A45U A56U U80G	0.11
A13G U25A A45U	0.49
A13G U26C A28G U51C	0.31
A13G U25C A56U U60A U78C	0.13
A13G U41C A45G G52C	0.29
A13G U60C U80C	0.46
A13U A15G A21G U80C	0.53
A13G G24U U58A A64G	0.05
A13U A15C G24C U31A A45G	0.2

Variant	self-cleavage
A13G U48C A65G U80A	0.14
A13U A18G A21C U25A	0.4
A13G U26A U43C G73U	0.56
A13G U60C A65G	0.17
A13U A20G G70C	0.22
A13G U31C U69C G70A U80C	0.08
A13G G24A U51C U72C	0.03
A13U A15U U54C C81U	0.21
A13U A18G U26A A35U C40G U41G U78C	0.07
A13G U26C C62U U72C	0.09
A13U A18G U26A U76A	0.78
A13U A18U A20G	0.18
A13U A20G A21U	0.28
A13G U26A U43C G53C A64C U69C	0.21
A13G U60C U69C	0.24
A13U A15G U67C U80C	0.29
A13G U69C U76C	0.35
A13G G42U A56G	0.29
A13U A15C C39U A45C U69C	0.08
A13G U25C U26A A45G	0.08
A13G U72A U78C	0.59
A13G U26C C38A U51C U69C	0.06
A13G U49C A56G U69C	0.6
A13G U26C C34A U51C	0.07

Variant	self-cleavage
A13U A18G U25C C59A	0.18
A13G U31A U69C	0.16
A13G U31A U69C U72C	0.18
A13G U41C A47G U66A	0.31
A13G U25C C59U	0.27
A13U A18G A20G U31A A57G	0.15
A13G U25C C38A A64G	0.18
A13G U26C A57G U67C	0.07
A13U A20C U41C A75G	0.25
A13G U67C U69C	0.12
A13G U26C G55A	0.18
A13U A20G U54G	0.57
A13G U25C U80A	0.1
A13G U25C C29G U43C U80C	0.22
A13G U26C A45U U69A	0.22
A13G U25C C32A U49A A56G	0.09
A13U A20G A45U G70C	0.11
A13U A15U U41G U80C	0.32
A13G U66C U74C	0.17
A13G G30A A35G G70U	0.06
A13G U25C U49A	0.17
A13G U51A A56U	0.47
A13G U54C U66C	0.44
